# Test results as given in PubChem BioAssay AID434955 (Southern Research Specialized Biocontainment Screening …, 2010).
# Some of the results follow. The main result of the screen is listed elsewhere. These columns were measured beside it and carry no call. The list favours compounds with an active or inconclusive main result.
# Assay: beta-lactam sensitization of Mtb H37Rv, H37Rv (AID 434955);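 note: growth measured after seven days incubation then overnight dye step; 0% = bacteria only wells and 100% = bacteria with antibiotic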
# Conditions: M. tuberculosis H37Rv growth with meropenem, percent inhibition; measured here: primary screen without meropenem; at 25 µM
row,Compound,inhibition
1,COc1cc(OC)cc(C(=O)NN2CCCCC2)c1,-0.06%
2,CCc1ccc(OCC(=O)N/N=C/c2cc([N+](=O)[O-])ccc2N2CCOCC2)cc1,72.5%
3,O=C(COCc1cc(-c2ccc3c(c2)OCO3)on1)N1CCN(c2ccccc2)CC1,4.76%
4,CC1CCCCN1S(=O)(=O)c1ccc2c(c1)C(C)(C)C(=O)N2C (configuration not stated),-6.07%
5,CCN(CC(=O)N1CCc2ccccc2C1)S(=O)(=O)c1ccc2ccccc2c1,5.34%
6,COc1ccccc1N1CCN(S(=O)(=O)c2ccc3nc(-c4ccccc4)[nH]c3c2)CC1,29.8%
7,Cc1nc2cc(NC(=O)COc3ccc(C#N)cc3)ccc2n1-c1ccccc1,73.8%
8,Cc1cccc(NC(NC(=O)c2cccnc2)C(Cl)(Cl)Cl)c1 (configuration not stated),-1.38%
9,O=c1ccc(-c2ccccc2)nn1Cc1ccc(F)cc1,11.5%
10,Cc1csc(NC(=O)C2CCCO2)n1 (configuration not stated),1.41%
11,O=C(NC1CCCCC1)c1cc2ccccc2cc1O,5.7%
12,O=C(Nc1ccon1)c1ccc(F)c(S(=O)(=O)N2CCCCC2)c1,1.2%
13,O=C(NC(=S)NC1CCS(=O)(=O)C1)c1ccccc1F (configuration not stated),-5.12%
14,N#Cc1ccsc1NC(=O)CCS(=O)(=O)c1ccccc1,0.69%
15,COc1ccc2oc(C(=O)Nc3nc4ccccc4[nH]3)c(C)c2c1,25.6%
16,COc1ccc(CCNC(=O)CCc2nnc(Cc3ccc4c(c3)OCO4)o2)cc1,3.46%
17,CSc1ccccc1C(=O)Nc1cccc([N+](=O)[O-])c1C,-0.5%
18,O=C(Cn1nnc(-c2cccs2)n1)N1c2ccccc2Sc2ccc(C(F)(F)F)cc21,2.06%
19,CCCc1cc(NCCCCO)n2c(nc3ccccc32)c1C#N,-18.1%
20,CCOC(=O)c1oc2ccccc2c1NC(=O)c1cccc(OC)c1OC,-3.13%
21,COc1cc(CSc2nc(-c3ccccc3)cc(=O)[nH]2)cc(OC)c1,2.19%
22,CCOC(=O)N1CCC(n2c(=S)[nH]c3cc(OC)c(OC)cc3c2=O)CC1,-0.02%
23,Cc1ccc(-c2csc3ncnc(N4CCc5ccccc5C4)c23)cc1,8%

row,Compound,inhibition
1,Cc1cc2c(cc(C(=O)OCC(=O)NCc3ccco3)n2C)s1,1.6%
2,O=C(COc1ccccc1)NNC(=O)c1cc2ccccc2o1,2%
3,CCCC(O)(c1ccc(Br)cc1)C(CN1CCOCC1)c1ccc(Cl)cc1 (configuration not stated),96.7%
4,O=C(CC1C(=O)NCCN1Cc1ccccc1F)NC1CCCCCC1 (configuration not stated),3.72%
5,CC1(C)CC(=O)c2cc(C(=O)NCc3ccco3)c(=O)n(-c3ccccc3)c2C1,19%
6,CCOC(=O)CSc1nnc(CNc2ccccc2Cl)n1-c1ccccc1,-2.78%
7,N#Cc1c2n(c3c(=O)n(Cc4ccccc4Cl)cnc13)CCCC2,4.98%
8,CCOc1ccc2c(c1)c(C(C)=O)c(C)n2-c1ccccc1,47.7%
9,O=C(Nc1cccc(-c2cn3cccnc3n2)c1)c1ccc(Br)o1,2.6%
10,Cc1cc(C)n(-c2nc3ccccc3c(=O)n2OCC(C)C)n1,-1.31%
11,Cc1ccc(-c2n[nH]c(=S)nc2-c2ccc(C)cc2)cc1,4.05%
12,CN(C)c1ccc(CN2CC=C(c3ccc(F)cc3)CC2)cc1,5.45%
13,CC(=O)Nc1ccc(Nc2ncc([N+](=O)[O-])c(Nc3ccc(NC(C)=O)cc3)n2)cc1,47.7%
14,NS(=O)(=O)c1ccc(O)c(NC(=O)c2ccc([N+](=O)[O-])o2)c1,15.1%
15,COC(=O)Cn1cnc2c(nnn2-c2ccc(C)cc2)c1=O,0.21%
16,Cc1cc(NS(=O)(=O)c2ccc(N3C(=O)C4C5C=CC(C5)C4C3=O)cc2)nc(C)n1 (configuration not stated),0.58%
17,CC1CCCCN1CCCNC(=O)CN1C(=O)c2cccnc2Oc2ccc(Cl)cc21 (configuration not stated),4%
18,O=C(CN(Cc1ccccc1)C(=O)c1cccc([N+](=O)[O-])c1)Nc1c(Cl)cc(Cl)cc1Cl,-1.11%
19,CCOC(=O)c1c(C)[nH]c(C)c1C(=O)COC(=O)/C=C/c1ccc(OC(F)F)cc1,14.6%
20,O=C(Nc1ccc(F)cc1)c1ccc2c(=O)n3c(nc2c1)CCCCC3,-3.27%
21,Cc1cccc(OCCNc2cc(N3CCN(C)CC3)ccc2[N+](=O)[O-])c1,86%
22,CC(=O)Nc1ccc(N2CCN(C(=O)c3cccs3)CC2)cc1,5.16%
23,CN(C(=O)CN1C(=O)S/C(=C\c2cccc(Cl)c2)C1=O)C1CCS(=O)(=O)C1 (configuration not stated),-0.44%

row,Compound,inhibition
1,Cc1ccc(-n2c(N)cc(=O)nc2SCC(=O)N2CCN(c3ccccc3)CC2)cc1C,-4.15%
2,Cc1cc2oc(=O)cc(CN3CCC(C)CC3)c2cc1C,21.6%
3,c1ccc(-c2ccc(C3=Nn4c(Cn5nnc6ccccc65)nnc4SC3)cc2)cc1,13.7%
4,COc1cccc2sc(N(CCN(C)C)C(=O)c3ccc(S(=O)(=O)N4CCCC4)cc3)nc12,2.38%
5,O=C(CSc1nc(N2CCOCC2)nc(N2CCOCC2)n1)Nc1cccc(C(F)(F)F)c1,0.28%
6,COC(=O)c1nnn(CC(=O)NC(=O)Nc2ccc(F)cc2)c1C(=O)OC,2.34%
7,Cn1c(CCNC(=O)c2ccco2)nc2cc(NC(=O)NC3CCCCC3)ccc21,-2.9%
8,COC(=O)/C(C#N)=C/c1c(N2CCCCCC2)nc2ccccn2c1=O,-9.73%
9,O=c1c2cc(N3CCOCC3)ccc2[nH]c(=S)n1CCCN1CCCC1,-0.67%
10,COc1ccc(OCc2cc(C(=O)NCC(C)(C)N3CCOCC3)no2)c(Cl)c1,0.74%
11,CCOc1ccc(NS(=O)(=O)c2ccc(OCC)c3ncccc23)cc1,-5.12%
12,COc1cc(C(=O)Nc2cccc(-c3cn4cccnc4n3)c2)cc(OC)c1OC,41.6%
13,CS/C(N)=N/N=C/c1cc(Br)cc(Br)c1O,5.76%
14,CCOC(=O)Nc1ccccc1N1C(=O)c2ccccc2C1=O,-1.6%
15,O=C(c1ccccc1)c1cc2cc(Cl)ccc2[nH]1,4.99%
16,O=[N+]([O-])c1cccc(CSC2=NCCN2S(=O)(=O)c2ccccc2)c1,1.87%
17,C#CCNc1cc(C)nc2ncnn12,-12.2%
18,CCN(CC)c1ccc(NC(=O)CCc2nnc3ccc(N4CCCC4)nn23)c(C)c1,-2.06%
19,CC1CCCN(S(=O)(=O)c2ccc(C(=O)Nc3nnc(-c4ccncc4)o3)cc2)C1 (configuration not stated),46.5%
20,COc1ccc(CCN=C(N)NS(=O)(=O)c2ccc(OC)c(OC)c2)cc1OC,-0.45%
21,CC(=O)OC[C@H]1O[C@@H](Sc2cccc3cccnc23)[C@H](OC(C)=O)[C@@H](OC(C)=O)[C@@H]1OC(C)=O,2.18%
